{"source": "PubChem BioAssay AID463173", "about": "(ICCB-Longwood Screening Facility, Harvard Medical School, 2010)", "note": "About 1,700 (3.3%) of roughly 52,000 compounds were called active. Rule as the data show it: active = survival mostly below about 52% (no sharp cut-off); inactive = mostly above about 56%. This is one part of the list.", "data": [{"system": "Wild type", "experiment": "growth inhibition of S. aureus wild type versus tarO mutant, primary screen, teichoic acid synthesis inhibitors, RN4220, OD600 (AID 463173)", "conditions": "S. aureus RN4220 wild type/DeltatarO growth, OD600, 18 h, hits give low values, screened at 18.75 µg/mL (by protocol)", "values": [{"smiles": "COc1cccc(OCC(=O)NCCS(=O)(=O)N2CCN(c3ccccc3F)CC2)c1", "survival": "inactive: 85%"}, {"smiles": "Cc1oc2ncn(CC(C)C)c(=O)c2c1C(=O)NCCc1ccccc1", "survival": "inactive: 72%"}, {"smiles": "Cc1cc(C)n2c(Nc3ccc(C(C)C)cc3)c(-c3ccsc3)nc2n1", "survival": "inactive: 60%"}, {"smiles": "CCc1nc2cccnc2n1-c1ccc(CC(=O)Nc2c(C)cccc2C)cc1", "survival": "inactive: 80%"}, {"smiles": "CCN(CC)C(=O)CSc1nc2ccsc2c(=O)n1Cc1ccccc1Cl", "survival": "inactive: 72%"}, {"smiles": "Cn1c(=O)n(C)c2cc(/C=C(/C#N)C(=O)NCc3ccco3)ccc21", "survival": "inactive: 109%"}, {"smiles": "CCc1ccc(NC(=O)CSc2nc3c([nH]c4ccccc43)c(=O)n2-c2cccc(OC)c2)cc1", "survival": "inactive: 99%"}, {"smiles": "CCOC(=O)C1=C(C)OC(N)=C(C(=O)OCC)C1c1ccncc1", "note": "(stereo unspecified)", "survival": "inactive: 103%"}, {"smiles": "O=C(Oc1ccccc1-c1nc(-c2ccccc2)no1)c1ccccc1", "survival": "inactive: 100%"}, {"smiles": "COc1cc(C)ccc1OCCSc1nc2ccc(NC(C)=O)cc2s1", "survival": "inactive: 73%"}, {"smiles": "CCCCCn1c(=O)c2c(nc3n2CCN3c2ccc(Br)cc2)n(C)c1=O", "survival": "inactive: 85%"}, {"smiles": "CN1C(=O)/C(=C2/Sc3ccccc3N2C)SC1=NC1CCCCC1", "survival": "inactive: 113%"}, {"smiles": "O=C(CN1CCC(n2nnc3cc(F)ccc32)CC1)NCCc1ccccc1", "survival": "inactive: 97%"}, {"smiles": "CCOc1ccc(NC(=O)CSc2nc(=O)[nH]c3c2CCC3)cc1", "survival": "inactive: 78%"}, {"smiles": "CCC(Sc1nnc2c3ccccc3n(C)c2n1)C(=O)Nc1nnc(C(C)C)s1", "note": "(stereo unspecified)", "survival": "inactive: 61%"}, {"smiles": "CCC1CN(C(=O)N2CCC(C(=O)N3CCN(c4cc(C)ccc4C)CC3)CC2)c2ccccc2O1", "note": "(stereo unspecified)", "survival": "inactive: 53%"}, {"smiles": "COCCN(C(=O)C1CC1)c1nnc(-c2cccc(C)c2)s1", "survival": "inactive: 107%"}, {"smiles": "COc1ccc(-c2cc3ccc(O)c(CN4CCCC4)c3oc2=O)cc1OC", "survival": "inactive: 135%"}, {"smiles": "Cc1ccc(C)c(CNC(=O)c2sc3ncnc(N(C)C4CCCCC4)c3c2C)c1", "survival": "inactive: 82%"}, {"smiles": "Cc1cc(F)ccc1NC(=O)CCSc1nc(-c2ccco2)cc(C(F)(F)F)n1", "survival": "inactive: 74%"}, {"smiles": "COC(=O)COc1ccc(Oc2nc(NC(C)(C)C)nc(N(C)C)n2)nn1", "survival": "inactive: 85%"}, {"smiles": "CCCCCCSc1ncc(C#N)c(N)n1", "survival": "inactive: 119%"}, {"smiles": "CCOC(=O)c1c(C)c(-c2ccccc2)n(CC(=O)Nc2cccc(C)c2C)c1C", "survival": "inactive: 98%"}, {"smiles": "COc1ccc(C(=O)NCC(c2ccc3c(c2)OCO3)N2CCOCC2)cc1OC", "note": "(stereo unspecified)", "survival": "inactive: 65%"}, {"smiles": "COc1ccc(CNC(=O)c2cn(-c3cccc(OC)c3)c(=O)c3ccccc23)cc1", "survival": "inactive: 82%"}, {"smiles": "Cc1ccc(C(=O)NC2(C(F)(F)F)N=C(c3ccccc3)N(C3CCCCC3)C2=O)cc1", "note": "(stereo unspecified)", "survival": "inactive: 70%"}, {"smiles": "Cc1ccc2nc(N(Cc3cccnc3)C(=O)CCOc3ccccc3)sc2c1", "survival": "inactive: 72%"}, {"smiles": "Cc1cccc(C(=O)N2CCc3cc(CNS(=O)(=O)c4cccs4)ccc32)c1", "survival": "inactive: 71%"}, {"smiles": "CCc1cc2c(cc3c(=O)n(CC(=O)NCCOC)nc(CC)n32)s1", "survival": "inactive: 70%"}, {"smiles": "CC(=O)Nc1ccc(Nc2ncnc3sc4c(c23)CCCC4)cc1", "survival": "inactive: 71%"}, {"smiles": "CCn1c(CC2C(=O)N(C)c3ccc(Br)cc32)nc2ccccc2c1=O", "note": "(stereo unspecified)", "survival": "inactive: 80%"}, {"smiles": "Cn1c(=O)cc(SCC(=O)N2CCN(c3ccccc3)CC2)c2ccccc21", "survival": "inactive: 76%"}, {"smiles": "COc1cc(OC)c(NC(=O)N2CC=C(c3c[nH]c4ccccc34)CC2)cc1Cl", "survival": "inactive: 70%"}, {"smiles": "COc1cccc(C(=O)Nc2ccc(C(=O)OCc3cc(=O)n4nc(C5CC5)sc4n3)cc2)c1", "survival": "inactive: 63%"}, {"smiles": "COc1ccccc1NC(=O)c1ccccc1C(=O)O", "survival": "inactive: 109%"}, {"smiles": "COc1ccccc1OCc1nc(-c2cccc(C)c2)no1", "survival": "active: 0%"}, {"smiles": "CCCN1C(=O)C2(c3ccccc31)c1c(oc3ccccc3c1=O)C(=O)N2CCCOC(C)C", "note": "(stereo unspecified)", "survival": "inactive: 79%"}, {"smiles": "Cc1cccc(-c2nc(SCC(=O)N(C)c3ccccc3)c3c(=O)n(C)c(=O)n(C)c3n2)c1", "survival": "inactive: 71%"}, {"smiles": "O=C(c1ccco1)N1CCN(C(=O)c2cnn(-c3cccc(F)c3)c2C2CCNCC2)CC1", "survival": "inactive: 70%"}, {"smiles": "O=C(O)c1ccc(C2Nc3ccccc3-c3nnc(SCc4ccc(Cl)cc4)nc3O2)cc1", "note": "(stereo unspecified)", "survival": "inactive: 74%"}, {"smiles": "O=C(c1cccc(Cl)c1)N1CCC(c2nc3ccccc3o2)CC1", "survival": "inactive: 100%"}, {"smiles": "O=C(Cn1c(=O)n2nc(-c3cccc(F)c3)nc2c2ccccc21)N1CCN(c2ccccc2F)CC1", "survival": "inactive: 136%"}, {"smiles": "COc1ccc(OC)c(NC(=O)c2c(C)oc3ncnc(N4CCOCC4)c23)c1", "survival": "inactive: 159%"}, {"smiles": "CC1CCN(C(=O)C(C)Sc2nc(-c3ccccc3)cc(C(F)(F)F)n2)CC1", "note": "(stereo unspecified)", "survival": "active: -7%"}, {"smiles": "COc1ccc(S(=O)(=O)N(C)CC(=O)NCc2ccc3c(c2)OCO3)cc1", "survival": "inactive: 93%"}, {"smiles": "CCCCn1c(=O)nc2n(-c3ccc(F)cc3)c3ccccc3cc-2c1=O", "survival": "inactive: 71%"}, {"smiles": "NC(=O)C1CCN(C(=S)NCCc2ccccc2)CC1", "survival": "inactive: 102%"}, {"smiles": "CC(Sc1nc2c([nH]c3ccccc32)c(=O)n1-c1ccccc1)c1ccccc1", "note": "(stereo unspecified)", "survival": "inactive: 98%"}, {"smiles": "Cc1ccc(-c2cc(C(F)(F)F)n3ncc(-c4ccc(Cl)cc4)c3n2)cc1", "survival": "inactive: 92%"}, {"smiles": "CCOC(=O)C1CCN(C(=O)c2ccc3c(c2)N=C(CC)c2cc(C)ccc2S3)CC1", "survival": "inactive: 29%"}, {"smiles": "O=C(CSc1nc2c(cnn2-c2ccc(F)cc2)c(=O)[nH]1)Nc1ccccc1C(F)(F)F", "survival": "inactive: 114%"}, {"smiles": "O=C(c1ccco1)N1CCCC(c2nc(-c3ccc(S(=O)(=O)NCc4ccccc4)cc3)no2)C1", "note": "(stereo unspecified)", "survival": "inactive: 111%"}, {"smiles": "CC1CCc2c(sc(NC(=S)NC(=O)c3ccn(C)n3)c2C(N)=O)C1", "note": "(stereo unspecified)", "survival": "inactive: 112%"}, {"smiles": "CCC(=O)N1CCc2cc(S(=O)(=O)CCC(=O)NCc3ccc(OC)cc3)ccc21", "survival": "inactive: 118%"}, {"smiles": "COc1cccc(CNC(=O)c2cc3ccc4cccnc4c3[nH]2)c1", "survival": "inactive: 77%"}, {"smiles": "Cc1occc1-c1nnc(SCC(=O)Nc2ccc3c(c2)OCO3)n1CC(C)C", "survival": "inactive: 99%"}, {"smiles": "COc1ccccc1NC(=O)C1=C(C)Nc2nc(SCc3cccc(F)c3)nn2C1c1ccc(C(=O)O)cc1", "note": "(stereo unspecified)", "survival": "inactive: 142%"}, {"smiles": "COc1ccccc1N1CCN(C(=O)c2cc3c(=O)oc4ccccc4c3s2)CC1", "survival": "inactive: 139%"}, {"smiles": "CCOc1ccc(N2CC(c3nc4ccccc4n3CCOc3ccccc3)CC2=O)cc1", "note": "(stereo unspecified)", "survival": "inactive: 26%"}, {"smiles": "CC(C)(C)c1cc(CN)c(C(=O)O)o1", "survival": "inactive: 108%"}, {"smiles": "O=C(CN1CCN(Cc2ccccc2)CC1)N1CCOCC1", "survival": "inactive: 112%"}, {"smiles": "COc1ccc(C2C=C(c3ccccc3)Nc3nc(NC(=O)/C=C/c4ccc(Cl)cc4)nn32)cc1", "note": "(stereo unspecified)", "survival": "inactive: 65%"}, {"smiles": "Cc1nn(-c2ccccc2)c2sc(C(=O)Nc3cccc(Br)c3)cc12", "survival": "inactive: 36%"}, {"smiles": "Cc1nc2ncnn2c(C)c1CCC(=O)NCc1cccc(Cl)c1", "survival": "inactive: 68%"}, {"smiles": "Cc1ccc(NC(=O)c2cc(S(=O)(=O)N3CCCCC3)c[nH]2)cc1F", "survival": "inactive: 97%"}, {"smiles": "CCOC(=O)N1CCN(C(=O)Cn2ncc3c4ccccc4n(Cc4ccc(F)cc4)c3c2=O)CC1", "survival": "inactive: 89%"}, {"smiles": "Cc1ccc(Nc2nc(N)nc(CSc3nccn3C)n2)cc1", "survival": "inactive: 94%"}, {"smiles": "Cc1noc(C)c1S(=O)(=O)NCCc1csc2nc(-c3ccc(Cl)cc3)nn12", "survival": "inactive: 72%"}, {"smiles": "O=C(COc1ccc(F)cc1)Nc1ccc(Cl)c(-c2nc3ccccc3[nH]2)c1", "survival": "inactive: 40%"}, {"smiles": "COc1ccccc1-c1nnc(C2CCN(S(=O)(=O)c3ccc(F)c(C)c3)CC2)o1", "survival": "inactive: 77%"}, {"smiles": "O=C(Oc1cccc(-n2cnnn2)c1)C1CCCCC1", "survival": "inactive: 100%"}, {"smiles": "CC(CCC(=O)O)C1CCC2C3C(O)CC4CC(O)CCC4(C)C3CC(O)C12C", "note": "(stereo unspecified)", "survival": "inactive: 106%"}, {"smiles": "CCCCc1nn2c(=O)cc(COC(=O)c3ccccc3NC(=O)c3cccc(C)c3)nc2s1", "survival": "inactive: 55%"}, {"smiles": "Cc1cccc(NC(=O)c2c(C)oc3ncnc(N4CCCCC4)c23)c1C", "survival": "inactive: 124%"}, {"smiles": "OCC(O)CN(c1ccccc1)c1ccccc1", "note": "(stereo unspecified)", "survival": "inactive: 113%"}, {"smiles": "CC(=O)Nc1cccc(-c2cn3cccnc3n2)c1", "survival": "inactive: 73%"}, {"smiles": "COc1ccc2nc(NC(=O)c3cc(=O)c4cc(C)c(C)cc4o3)sc2c1", "survival": "inactive: 81%"}, {"smiles": "Cc1nc(-c2ccc(F)cc2)sc1CCNC(=O)c1ccc(C(C)(C)C)cc1", "survival": "inactive: 73%"}, {"smiles": "Cc1ccc(Cl)cc1NS(=O)(=O)c1ccc(N2CCCCS2(=O)=O)cc1", "survival": "inactive: 124%"}, {"smiles": "Cc1ccc(C(=O)NCC(c2cccnc2)N2CCc3ccccc3C2)cc1C", "note": "(stereo unspecified)", "survival": "inactive: 84%"}, {"smiles": "CCOc1ccc(C(=O)c2c(N)c(-c3nc(-c4ccc(OCC)cc4)cs3)c3ccccn23)cc1", "survival": "inactive: 103%"}, {"smiles": "Nc1c(C(=O)c2ccccc2)sc(Nc2ccc(Cl)c(Cl)c2)c1C(=O)Nc1ccccc1", "survival": "inactive: 75%"}, {"smiles": "Cc1ccc2c(c1)N(C(=O)N1CCC(C(=O)NCc3ccccc3F)CC1)CC(C)O2", "note": "(stereo unspecified)", "survival": "inactive: 101%"}, {"smiles": "Cc1cccc(NC(=O)c2sc(-n3nc(C)c(CCC(C)C)c3C)nc2C)c1", "survival": "inactive: 89%"}, {"smiles": "CCOC(=O)CSc1nc2c(sc3ccccc32)c(=O)n1Cc1ccc(OC)cc1", "survival": "inactive: 73%"}, {"smiles": "N#Cc1ccccc1OCC(=O)N1CCN(c2ccccc2F)CC1", "survival": "inactive: 116%"}, {"smiles": "Cc1cc(=O)[nH]c(Nc2nc3ccccc3[nH]2)n1", "survival": "inactive: 118%"}, {"smiles": "COc1cc2ccccc2cc1C(=O)Nc1ccc2oc(-c3cccc(C)c3)nc2c1", "survival": "active: 6%"}, {"smiles": "COc1ccc(CCNc2nc3cc(OC)c(OC)cc3c3nc(-c4cccnc4)nn23)cc1OC", "survival": "inactive: 121%"}, {"smiles": "COc1ccc(OC)c(NC(=O)N2CCN(Cc3nc4ccc(C)cc4o3)CC2)c1", "survival": "inactive: 71%"}, {"smiles": "O=S(=O)(c1ccccc1)c1nc(-c2ccccc2F)oc1N1CCOCC1", "survival": "inactive: 77%"}]}]}
